# Source: the BET-seq Pho4 binding data (Le et al. 2018)
# This is one part of the list. The energies were worked out here from pooled read counts, against the library average; single values are noisy.
# Molecular target: T1, Pho4 (S. cerevisiae) (UniProt P07270)
# T1 sequence: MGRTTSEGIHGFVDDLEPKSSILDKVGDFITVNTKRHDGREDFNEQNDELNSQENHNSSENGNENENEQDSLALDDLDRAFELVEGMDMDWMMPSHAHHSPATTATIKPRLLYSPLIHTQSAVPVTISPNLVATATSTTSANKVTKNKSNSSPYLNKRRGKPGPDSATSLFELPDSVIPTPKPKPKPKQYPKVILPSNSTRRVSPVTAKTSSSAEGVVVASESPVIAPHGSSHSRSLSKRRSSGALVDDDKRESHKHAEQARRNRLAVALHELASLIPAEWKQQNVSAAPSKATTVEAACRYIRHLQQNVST
# Test: relative binding free energy (BET-seq); higher = weaker binding
# Conditions: reference: library average
row,Sequence,relative binding free energy
1,AGGATCACGTGTGGTG,0.24 kcal/mol
2,GTTCTCACGTGGTGGA,0.3 kcal/mol
3,TGTGTCACGTGCCATG,0.04 kcal/mol
4,TATGTCACGTGAGTCG,0.21 kcal/mol
5,GAGTGCACGTGAGGGA,0.14 kcal/mol
6,GGTTACACGTGCAAGG,0.35 kcal/mol
7,GGTGTCACGTGTATAC,0.07 kcal/mol
8,GGTTCCACGTGTTAAG,0.12 kcal/mol
9,ATGCTCACGTGGGGGT,0.15 kcal/mol
10,ACTTTCACGTGGGATA,0.14 kcal/mol
11,TTCATCACGTGTATGA,0.14 kcal/mol
12,TTTTCCACGTGTGTAT,0.09 kcal/mol
13,CATGACACGTGGTGGA,0.07 kcal/mol
14,GTGGGCACGTGACCTG,-0.08 kcal/mol
15,TGTTACACGTGCTGGG,0.07 kcal/mol
16,ATAGGCACGTGAGAGG,0.03 kcal/mol
17,AATGACACGTGTGAAT,0.15 kcal/mol
18,TGTCGCACGTGTCGTT,-0.01 kcal/mol
19,TTTTGCACGTGAAGCG,0.29 kcal/mol
20,GAGTACACGTGTTTTT,0.18 kcal/mol
21,AGGTCCACGTGCGTGG,-0.04 kcal/mol
22,CATGTCACGTGGCGGG,-0.08 kcal/mol
23,TTATACACGTGGCTTA,0.15 kcal/mol
24,TTGTGCACGTGAGAAA,0.19 kcal/mol
25,GGTTTCACGTGGGGGG,0.24 kcal/mol

row,Sequence,relative binding free energy
1,TTACTCACGTGAGATT,0.49 kcal/mol
2,ATGCACACGTGGCTGG,0.02 kcal/mol
3,AGTATCACGTGGCGAT,0.07 kcal/mol
4,ATGGGCACGTGATTCG,0.07 kcal/mol
5,GTAATCACGTGTTTAA,0.07 kcal/mol
6,TGGGGCACGTGCTAGA,-0.16 kcal/mol
7,ATGGTCACGTGGAACG,0.07 kcal/mol
8,TTAGACACGTGCGGGC,-0.02 kcal/mol
9,CGCTACACGTGGGGGG,0.04 kcal/mol
10,AGTTACACGTGGCGGG,0.03 kcal/mol
11,GTGAACACGTGCCGGG,0.13 kcal/mol
12,ATTGACACGTGGGATG,-0.11 kcal/mol
13,AGTAGCACGTGGGCGT,-0.34 kcal/mol
14,ACGTGCACGTGGTGGG,-0.05 kcal/mol
15,CCGGGCACGTGGGTTT,-0.15 kcal/mol
16,TGCTACACGTGGTGCT,-0.05 kcal/mol
17,GGAATCACGTGTGTGT,0.23 kcal/mol
18,GTATACACGTGATGGT,0.25 kcal/mol
19,GAGAACACGTGGGTGT,-0.06 kcal/mol
20,TTGGACACGTGTAAGG,0.1 kcal/mol
21,TAGGGCACGTGAAGCG,0.03 kcal/mol
22,AGTTGCACGTGTTTTT,0.03 kcal/mol
23,TTTTACACGTGCCGTG,0.07 kcal/mol
24,GTTATCACGTGAGGAG,0.36 kcal/mol
25,CACGGCACGTGTGGGT,-0.1 kcal/mol

row,Sequence,relative binding free energy
1,TATGCCACGTGTTTAG,-0.14 kcal/mol
2,TTTTGCACGTGGGTAT,-0.11 kcal/mol
3,TGGCCCACGTGGGTGG,-0.27 kcal/mol
4,TGTGTCACGTGGTAGG,0.06 kcal/mol
5,TATTGCACGTGTAGGC,0.05 kcal/mol
6,TGGCTCACGTGTAGTA,0.12 kcal/mol
7,TATGGCACGTGTGATC,0.06 kcal/mol
8,TGTGACACGTGTGTGA,-0.11 kcal/mol
9,TTGTGCACGTGCAATT,-0.02 kcal/mol
10,ATGTTCACGTGCGTAA,0.1 kcal/mol
11,GTGTACACGTGTTTAA,0.09 kcal/mol
12,TACGGCACGTGTTTTT,-0.1 kcal/mol
13,AAGTACACGTGTATTT,0.07 kcal/mol
14,TAGTACACGTGGTGTC,0.06 kcal/mol
15,TTAATCACGTGGGGAC,0.08 kcal/mol
16,GACTTCACGTGGTTGG,0.29 kcal/mol
17,GGTGACACGTGGTATC,0.1 kcal/mol
18,AATGACACGTGGCGTG,-0.02 kcal/mol
19,ATAGTCACGTGTGATC,0.12 kcal/mol
20,AGTGGCACGTGCCTTT,-0.13 kcal/mol
21,GCTGGCACGTGGTTAA,-0.06 kcal/mol
22,TGGACCACGTGAGATG,0.46 kcal/mol
23,TTAGACACGTGAGTTA,0.06 kcal/mol
24,GGCTTCACGTGGGTGT,0.26 kcal/mol
25,ATGGTCACGTGAGTGC,0.07 kcal/mol

row,Sequence,relative binding free energy
1,GACGTCACGTGTGTGA,0.13 kcal/mol
2,ACTTACACGTGTGGTA,0.19 kcal/mol
3,TGGCTCACGTGTGAAT,0.19 kcal/mol
4,ATGGGCACGTGGATGG,-0.12 kcal/mol
5,TGAAACACGTGCGGTG,-0.03 kcal/mol
6,TTTTTCACGTGTTCTT,0.29 kcal/mol
7,TACTTCACGTGGGGAT,0.26 kcal/mol
8,TTGAACACGTGGGGCG,-0.08 kcal/mol
9,AGTTACACGTGCGTTC,0.25 kcal/mol
10,CTGGTCACGTGCGGGA,0.15 kcal/mol
11,TTTAACACGTGAGGTC,0.28 kcal/mol
12,ATACGCACGTGGAGTG,-0.14 kcal/mol
13,GTTTACACGTGGTTCA,0.06 kcal/mol
14,GGCTGCACGTGGCGTG,-0.05 kcal/mol
15,CATGACACGTGGCGGG,0.01 kcal/mol
16,GGAAGCACGTGGGGTC,-0.24 kcal/mol
17,AGGTGCACGTGTATTA,0.05 kcal/mol
18,GGTGGCACGTGGTGGG,-0.1 kcal/mol
19,AGGGCCACGTGGTGCT,-0.07 kcal/mol
20,GATGGCACGTGGATCG,-0.02 kcal/mol
21,AAATTCACGTGTATTT,0.22 kcal/mol
22,GTCTTCACGTGTTTGT,0.25 kcal/mol
23,GGTCACACGTGTGCTG,0.14 kcal/mol
24,TGATGCACGTGGTGGG,-0.13 kcal/mol
25,AGGGCCACGTGTTAGT,-0.16 kcal/mol

row,Sequence,relative binding free energy
1,TGGATCACGTGAGTAG,0.39 kcal/mol
2,AATTTCACGTGGGAAG,0.22 kcal/mol
3,GTGGGCACGTGCTCAG,-0.12 kcal/mol
4,CGTGGCACGTGGTTAG,-0.13 kcal/mol
5,GGTCACACGTGTTGTT,0.22 kcal/mol
6,CCTTGCACGTGGTTTG,-0.15 kcal/mol
7,TTTACCACGTGAGGGT,0.2 kcal/mol
8,GTAGGCACGTGTGGCA,-0.06 kcal/mol
9,CTAGGCACGTGGTATA,-0.23 kcal/mol
10,GAGTCCACGTGGGTGG,-0.12 kcal/mol
11,TCGGTCACGTGGGTCA,-0.12 kcal/mol
12,ACGGTCACGTGGAGGT,0.24 kcal/mol
13,TGAGGCACGTGGTATG,-0.06 kcal/mol
14,TTTGTCACGTGGGGAG,0.05 kcal/mol
15,TTTTGCACGTGGCGAT,-0.02 kcal/mol
16,CGTAGCACGTGGCGGT,-0.32 kcal/mol
17,CCTGGCACGTGGGATT,-0.16 kcal/mol
18,GCAATCACGTGTAGGG,0.07 kcal/mol
19,TTGTGCACGTGCTGCT,-0.15 kcal/mol
20,GGGAGCACGTGTTGGA,-0.02 kcal/mol
21,TGTCGCACGTGGGTTA,-0.25 kcal/mol
22,CTATTCACGTGGGATA,0.13 kcal/mol
23,AGGTGCACGTGTTTTT,0.09 kcal/mol
24,AGGTACACGTGTTAGT,-0.1 kcal/mol
25,TTCAACACGTGTGTAT,0.13 kcal/mol

row,Sequence,relative binding free energy
1,AGGATCACGTGGGTAC,0.07 kcal/mol
2,TATGTCACGTGGACTG,0.07 kcal/mol
3,TGTCACACGTGTAGTT,0.02 kcal/mol
4,TGTAGCACGTGCGCGT,-0.27 kcal/mol
5,CATGTCACGTGTTTAT,0.16 kcal/mol
6,GCTGACACGTGGCGGG,-0.02 kcal/mol
7,CAGGTCACGTGTATGT,-0.06 kcal/mol
8,GATTGCACGTGTTTTA,0.05 kcal/mol
9,TCAGGCACGTGTTTGG,-0.03 kcal/mol
10,GGAAACACGTGTAGAG,0.21 kcal/mol
11,GGTAGCACGTGCAGGT,-0.11 kcal/mol
12,GCGTGCACGTGGTGTG,-0.08 kcal/mol
13,TTGCTCACGTGGTATT,0.08 kcal/mol
14,AGTCACACGTGTTGGG,0.03 kcal/mol
15,AGCGGCACGTGGCTGT,-0.08 kcal/mol
16,GGTAGCACGTGAATGT,0.3 kcal/mol
17,TACATCACGTGTTGGC,0.23 kcal/mol
18,GTGGGCACGTGTATTG,-0.04 kcal/mol
19,CAGGGCACGTGGCTGG,-0.28 kcal/mol
20,AGTATCACGTGTTAGT,0.14 kcal/mol
21,GCGAGCACGTGAAGGT,0.2 kcal/mol
